Test results reported in PubChem BioAssay AID1479 (National Center for Advancing Translational Sciences (NCATS), 2009).
Among all 280,000 compounds or so, about 820 (0.29%) were called active. The shares of active, inactive and inconclusive entries below differ from those in the screen. Calls follow the shape of the dose curve; as a rule, active = well fitted curve in either direction with a large enough effect; inconclusive = small, poorly fitted or top-dose-only effect; inactive = flat fitted curve, though single readings scatter. Potencies of inconclusive entries are left out as doubtful fits.

Assay: Total Fluorescence Counterscreen for Inhibitors of the Interaction of Thyroid Hormone Receptor and Steroid Receptor Coregulator 2
Conditions: TRb/SRC2 Texas Red total fluorescence interference; series mostly up to 106 µM; fluorescence change, negative = quenching: at the top concentration
In short: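 Flags fluorescent or light-absorbing compounds by total fluorescence, S + 2P, at 555 nm excitation and 632 nm emission. Mixture: 20 nM Texas Red SRC2 peptide, 0.6 uM human TRb LBD, 1 uM T3, 5% DMSO; compound exposure 5 h at ambient temperature.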
% is scaled to controls: 0 for no effect and ±100 for the full control effect; potency is read from the fitted curve at half-maximal effect; tags tell the direction and shape of the fitted curve or compound fluorescence and quenching.

SMILES | Potency | fluorescence change, negative = quenching
Cc1ccc(CN(C(=O)c2ccccc2)c2ccccn2)o1 | inconclusive [falling, full curve, poor fit] | 
CCC1CN(C(=O)NCc2ccc(C)cc2)c2ccccc2O1 (stereo not given) | inconclusive [falling, full curve, poor fit] | 
O=C(Nc1cccc(F)c1)[C@H](CSCc1ccccc1)N1Cc2ccccc2C1=O | inconclusive [quencher, full curve] | 
CC(C)Cn1c2c(c(O)c(C(=O)Nc3ncccc3O)c1=O)CCCC2 |  | inactive: -0.389%
COc1cc(OC)cc(-c2nc3nc(C)c(CCC(=O)Nc4ccc(F)cc4F)c(C)n3n2)c1 | inconclusive [falling, full curve, poor fit] | 
COc1cccc(-c2cc(NCc3cccs3)ncn2)c1 | inconclusive [quencher, partial curve] | 
O=C(Nc1nc(-c2ccccc2)cs1)c1cccc([N+](=O)[O-])c1 |  | inactive: -4.33%
CC(C(=O)O)N1C(=O)/C(=C/C=C/c2ccco2)SC1=S (stereo not given) | inconclusive [quencher, partial curve] | 
Cc1ccc(S(=O)(=O)Nc2ccc(NS(=O)(=O)c3ccc(C)cc3)c3ncccc23)cc1 |  | inactive: -1.99%
Cc1nc(N2CCOCC2)c2c(C(=O)NCCc3ccccc3)c(C)oc2n1 | inconclusive [falling, full curve, poor fit] | 
O=C(Cc1ccccc1)Nc1sc2c(c1C(=O)Nc1ccccc1)CCCCC2 | inconclusive [quencher, full curve] | 
COc1ccc(-c2cc(=O)c3ccccc3o2)cc1OC | inconclusive [quencher, full curve] | 
Nc1ccc(C(=O)OCC(=O)N2CCN(C(=O)c3ccco3)CC2)cc1[N+](=O)[O-] | active: 0.158 µM [quencher] | 
Cc1ccc2c(=O)cc(C(=O)Nc3ccc(S(=O)(=O)N4CCC(C)CC4)cc3)oc2c1C | inconclusive [falling, partial curve, poor fit] | 
COc1ccccc1C1=Nn2c(nnc2-c2ccccc2O)SC1 |  | inactive: -0.91%
COc1cc(C(=O)OCc2cc(=O)n3nc(C4CCCCC4)sc3n2)cc(OC)c1OC | inconclusive [falling, partial curve, poor fit] | 
O=C(Cc1cc(=O)[nH]c(=O)[nH]1)NCc1ccc(Cl)cc1 | inconclusive [rising, single point] | 
CCc1cccc(NC(=O)c2cn3c4c(ccc(Cl)c4c2=O)OC(C)C3)c1 (stereo not given) | inconclusive [quencher, full curve] | 
Cc1nc(-c2ccc(S(=O)(=O)Nc3ccc(C#N)cc3)cc2)co1 | inconclusive [falling, full curve, poor fit] | 
COc1ccc(-c2nsc(SCC(=O)NCc3ccc4c(c3)OCO4)n2)cc1 |  | inactive: -5.61%
Cc1cc(C(=O)N/N=C/c2c(C)[nH]c3ccccc23)n[nH]1 |  | inactive: -3.2%
COc1ccc(N2CCN(C(c3ccccc3)c3sc4nc(-c5ccco5)nn4c3O)CC2)cc1 (stereo not given) |  | inactive: -3.25%

SMILES | Potency | fluorescence change, negative = quenching
CCN1C(=O)/C(=C2/C=Cc3ccccc3N2CC)SC1=S |  | inactive: -3.51%
O=C(Cc1cc(=O)[nH][nH]1)N/N=C/c1ccccc1[N+](=O)[O-] | inconclusive [falling, partial curve, poor fit] | 
O=C(Nc1ccc(O)c(-c2nc3ccccc3o2)c1)c1sc2ccccc2c1Cl | inconclusive [falling, partial curve, poor fit] | 
Cc1cccc(C2C=C(c3ccc(C)c(C)c3)Nc3nnnn32)c1 (stereo not given) | inconclusive [falling, partial curve, poor fit] | 
Cc1cc(F)ccc1S(=O)(=O)Nc1ccc2oc3c(c2c1)CC(C)CC3 (stereo not given) | inconclusive [falling, full curve, poor fit] | 
CCc1ccc2oc(C(=O)Nc3cccc(Cl)c3C)cc(=O)c2c1 | inconclusive [falling, partial curve, poor fit] | 
CCC(Cc1ccccc1)NC(=O)CN1C(=O)COc2ccc(S(=O)(=O)N3CCCCCC3)cc21 (stereo not given) | inconclusive [falling, full curve, poor fit] | 
Cc1ccc2nc3sc(C(=O)NCCCN(C)c4ccccc4)cc3cc2c1 | inconclusive [falling, full curve, poor fit] | 
CCCN1CCC(=O)N(C(CSc2ccc(Br)cc2)CC(C)C)CC1 (stereo not given) |  | inactive: -1.33%
Cc1ccc(C(=O)NC2=NC(c3ccc(C)cc3)CC(=O)N2)cc1 (stereo not given) | active: 251 µM [quencher] | 
CCOC(=O)C(=Cc1ccccc1)C(=O)OCC |  | inactive: -0.655%
CCCOC(=O)c1c(NC(=O)C(C)Sc2nc(-c3ccccc3)cc(C(F)(F)F)n2)sc(C(=O)N(C)C)c1C (stereo not given) |  | inactive: 2.55% [at 11.2 µM]
CCC(C)NC(=O)Cn1c(=O)n(CCCCCC(=O)NCc2ccccc2Cl)c(=O)c2sccc21 (stereo not given) | inconclusive [falling, full curve, poor fit] | 
CCOC(=O)OCC1OC(c2ccccc2)C=CC1Oc1ccc(F)cc1C (stereo not given) | inconclusive [quencher, full curve] | 
O=C(Nc1cccc(C(F)(F)F)c1)c1cc(CN2CCOCC2)on1 | inconclusive [quencher] | 
COc1ccccc1NC(=O)C1=C(C)Nc2nnnn2C1c1ccc(C(F)(F)F)cc1 (stereo not given) | inconclusive [falling, full curve, poor fit] | 
Cc1c(Cl)cccc1-n1ncc(C(=O)Nc2ccc(Br)cc2F)c1C1CCNCC1 | inconclusive [quencher, partial curve] | 
COC(=O)[C@@]1(Cc2ccccc2)[C@H]2c3cc(C(=O)N(C)C)n(Cc4c(CO)[nH]cc(C)c4=O)c3C[C@H]2CN1C(=O)c1ccccc1 |  | inactive: 0.826%
CCC(C(=O)OCc1cc(=O)n2nc(C)sc2n1)c1ccccc1 (stereo not given) | inconclusive [quencher, full curve] | 
CCCCCCCCCCCCC/C=C/[C@@H](O)[C@@H](N)CO | inconclusive [falling, full curve, poor fit] | 
CCc1cccc2c(C(=O)CSc3nncn3-c3ccc(OC)cc3)c[nH]c12 |  | inactive: -2.36%
O=C(O)C1Nc2c(O)cc(Cl)c([N+](=O)[O-])c2C2C=CCC12 (stereo not given) | active: 12.6 µM [quencher] | 

SMILES | Potency | fluorescence change, negative = quenching
Cc1cccc[n+]1CC(=O)c1ccc2c(c1)OCCO2 | inconclusive [falling, full curve, poor fit] | 
COc1ccc(NC(=O)/C=C/c2ccccc2[N+](=O)[O-])c(OC)c1 |  | inactive: -1.31%
Cc1c(C(=O)Nc2ccc(C(C)C)cc2)sc2nc3n(c(=O)c12)CCC3 | inconclusive [falling, full curve, poor fit] | 
Cc1nn(C(=O)c2ccc(Cl)cc2)c(C)c1S(=O)(=O)N1CCOCC1 | inconclusive [quencher, partial curve] | 
CCc1ccc(CNC(=O)CN2C(=O)CSc3c2c(C)nn3-c2ccccc2)cc1 | inconclusive [falling, full curve, poor fit] | 
COc1cccc2c1C(=O)c1c(O)c3c(c(O)c1C2=O)C[C@](O)(C(=O)CO)C[C@H]3O[C@@H]1C[C@H](N)[C@H](O)[C@H](C)O1 | active: 15.8 µM [fluorescent] | 
COc1ccc(/C=N/NC(=O)c2ccncc2)cc1CSc1nc2ccccc2s1 | inconclusive [falling, full curve, poor fit] | 
CCN(CC)c1nc2ccccc2nc1C(=O)Nc1cc(OC)c(OC)c(OC)c1 | inconclusive [falling, partial curve, poor fit] | 
CC(=O)c1ccc(NS(=O)(=O)c2cccc(S(=O)(=O)c3ccc(Cl)cc3)c2)cc1 | inconclusive [falling, full curve, poor fit] | 
O=C(N/N=C/c1ccc(-c2ccc([N+](=O)[O-])cc2)o1)[C@H]1C[C@@H]1c1ccccc1 |  | inactive: -0.146%
COC(=O)C1=C(C)Nc2ncnn2C1c1ccc(OC(=O)c2ccccc2)cc1 (stereo not given) |  | inactive: 0.93%
CCN1/C(=C/C(C)=C/c2sc3ccccc3[n+]2CC)Sc2ccccc21 | active: 20 µM [fluorescent] | 
O=[N+]([O-])c1ccc(N2CCCC2)cc1N1CCCC1 |  | inactive: -1.09%
CCOc1ccc(C(=O)N(Cc2sccc2C)C2CCS(=O)(=O)C2)cc1 (stereo not given) | inconclusive [falling, partial curve, poor fit] | 
O=C(Nc1ccc(OC(F)(F)F)cc1)c1nc2ccccc2nc1N1CCCCC1 | inconclusive [falling, full curve, poor fit] | 
Cc1ccc(NC(=O)Cn2nc(-c3ccncc3)ccc2=O)cc1Cl | inconclusive [falling, partial curve, poor fit] | 
COc1ccc(S(=O)(=O)NCCCO)cc1-c1nnc2c3ccccc3c(C)nn12 | inconclusive [falling, full curve, poor fit] | 
CC(C)CCCC(C)C1CCC2C3=CC[C@@H]4CC(O)CC[C@@]4(C)C3CC[C@]21C (stereo not given in full) |  | inactive: -4.1%
O=C(NN1C(=O)c2ccccc2NC1c1ccccn1)c1ccc([N+](=O)[O-])cc1 (stereo not given) | inconclusive [falling, full curve, poor fit] | 
Cc1ccn2c(Nc3ccc4c(c3)OCO4)c(-c3ccc(N(C)C)cc3)nc2c1 |  | inactive: -1.38%
Cc1ccc(CN(C(=O)COc2ccc(Cl)c(C)c2)C2CCS(=O)(=O)C2)o1 (stereo not given) | inconclusive [falling, full curve, poor fit] | 
